Measured values reported in the RNAGym collection of RNA variant scans (doi:10.7554/elife.90254).
Read counts are not given, so values of variants with three or more changes are uncertain.

B1: OR4K15 (parent)
chain: GUUAACGGUCAUAGGCCAUGGAAACUAGGAGCACCAUUUCGCUGCCAGUGAAGAAAUGAACAAAGAAAAUCUGGGCCAGGCAGGCAUCAAAAGAAAUAGUCUUGCGCUCAACCAGAAAGUCUGUAAUCAUUUUAAGGGUA

Variants of: B1
Experiment: self-cleavage, relative activity (ratio to wild type); higher = more cleavage; in vitro, sequencing; the parent is a self-cleaving ribozyme

| Variant | self-cleavage |
| --- | --- |
| A51G A69G U70C U122C | 0.19 |
| A51G A62G A111G | 0.02 |
| A51G A126U U132C | 1.04 |
| A51G U57A A110U | 0.49 |
| A54G A60G A64G | 0.87 |
| A51G A82U A95G U120C | 0.43 |
| A51U A91G U130A | 1.14 |
| A54G A64G A69G A96G A135G | 1.47 |
| G53A A92U A111U A126G | 0.06 |
| A54G A78G U103C A118G | 0.02 |
| A52G U87A A110G | 0.11 |
| A52G U70C A125G | 0.16 |
| A52G G74A U120A | 0.17 |
| A52G A78G U127C | 0.11 |
| A51U A78G U108C U127C | 0.01 |
| A52U A54G A55U A64G A86C | 0.86 |
| A51G U102C U133C | 1.66 |
| A54G A63G U100A A126G | 0.37 |
| A51U A60G A82G A110G | 0.05 |
| A52U A98U A129G | 2.92 |
| A51G A62G A117G | 1.61 |

| Variant | self-cleavage |
| --- | --- |
| A52G U70C A117G U130C | 0.61 |
| A51G U122C A126G | 1.43 |
| A52G A117G U127C | 1.37 |
| A51G U72A A94G A95G A114G | 0.15 |
| A51G A64G A68G A86G | 1.13 |
| A52C U108C C113U | 0 |
| A52G A94G A110U A118G | 0.89 |
| A52G A90G A114U A117G | 0 |
| A52G A54U A111G A117G | 0.06 |
| A52G A55G A68G A90G A92G | 1.27 |
| A54G A96G A110U | 1.08 |
| A52U A59G A62G U87C | 0.93 |
| A52C A64G A92C U100G A110G | 0.07 |
| A52G A67U A94G | 0.94 |
| A52U A66G A111G U127A | 0.03 |
| A54G U70C A89G | 1.13 |
| A54G A90U A118G | 1.62 |
| A51G A82U U108C | 0.03 |
| A52U U57G A125G U130C | 0.26 |
| A54G U57A A92G A129U | 0.91 |
| A52G A66G U70A U122G | 0.74 |

| Variant | self-cleavage |
| --- | --- |
| A54G A62G A86U A92G A94G | 0.62 |
| G53A A68G A92G | 1.22 |
| A52G A67G A82G A91G | 0.09 |
| A51U A69G A91G G123A | 0.42 |
| A54G A62G A82G A91G | 0.11 |
| A54G A78U A91G A111U U120C | 0.01 |
| A51U A111U U130C | 0.03 |
| A51G U72A U131C | 0.13 |
| A51U A82G A111G A116G | 0.01 |
| A52G U87C A90G | 0.34 |
| A54G A111G U122C | 0 |
| A52G A60G A90G | 0.66 |
| A52G A60U A82U | 0.26 |
| A54G A78U A89U G106U | 0.01 |
| A51U A64G A69G A129G A135G | 0.17 |
| A54G A55G U124C | 0.85 |
| A52G A67G A78G | 0.56 |
| A52G A92G A94G | 1.18 |
| A52G A60G U87C A91G | 0.19 |
| A51G U103C A114U | 0.03 |
| A51G U103C A114G | 0.2 |

| Variant | self-cleavage |
| --- | --- |
| A54G A67G A69G | 1.26 |
| A54G U108C U130G | 0 |
| A52G U108C U132C | 0.01 |
| A51G U70A A117G | 1.14 |
| A54G A56G A94U | 1.19 |
| A54G A67G G75A C112U | 0.03 |
| A51G U87C A125G | 0.09 |
| A54G A59U U87A | 1.21 |
| A51G A91G U120A | 0.81 |
| A51G C71A A96G | 0.09 |
| A51G A63G A78G A116G | 0.23 |
| A52G U57C U102C | 1.43 |
| A52G A63U U102C | 1.88 |
| A52G U100A A126U A140G | 0.32 |
| G53A U70C A111G | 0.04 |
| A52G G65A A111G A126G | 0.01 |
| A52G A60G U87C U103C | 0.64 |
| A54G A78U A111G | 0.04 |
| A51G U57G A67G | 0.72 |
| A52G A62U A92G | 0.28 |
| A54G A91G A114G | 0.38 |
